Data taken from PubChem BioAssay AID485281 (National Center for Advancing Translational Sciences (NCATS), 2010).
Screen size: about 350,000 compounds; about 260 (0.074%) were called active. Inconclusive results, whose numbers are uncertain, are shown with a selection of clear calls. Calls follow the shape of the dose curve; as a rule, active = well fitted inhibition curve with a large enough effect; inconclusive = small, poorly fitted or top-dose-only effect; inactive = no such curve, though single readings can be large or run the other way. Potencies of inconclusive entries are doubtful fits and often do not repeat.

Target: Ferritin light chain (Equus caballus) (UniProt P02791)
Sequence of UniProt P02791 (P02791 whole entry, looked up): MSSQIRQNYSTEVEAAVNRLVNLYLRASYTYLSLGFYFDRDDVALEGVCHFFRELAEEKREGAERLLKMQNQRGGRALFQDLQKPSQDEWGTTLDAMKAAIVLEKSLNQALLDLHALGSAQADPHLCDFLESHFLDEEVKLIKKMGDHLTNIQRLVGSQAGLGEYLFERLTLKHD
Assay: qHTS Assay for Identification of Novel General Anesthetics; also: nearly all actives have a fitted effect of over 20% in size
Conditions: apoferritin/1-aminoanthracene competitive binding, fluorescence; series mostly up to 77.5 µM
Summary of the method: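 Concentration-response curves derived by four-parameter Hill fitting of normalized fluorescence, where compounds displaced 1-AMA from 10 uM horse apoferritin following a brief 10 min room-temperature incubation; propofol titration acted as positive control.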
Potency is read from the fitted curve at half-maximal effect; tags tell the direction and shape of the fitted curve.

Potency, inconclusive:
N#Cc1ccccc1NC(=O)C(=O)NCC(c1ccc2c(c1)OCO2)N1CCN(c2ccccc2)CC1 (configuration not stated) 12.6 µM [inhibitor, full curve]
CCOCCCNc1ccc(N2C(=O)C3CCCCC3C2=O)cc1[N+](=O)[O-] (configuration not stated) 3.55 µM [inhibitor, full curve]
Cc1ccccc1NC(=O)C1COc2ccccc2O1 (configuration not stated) 31.6 µM [inhibitor, partial curve]
CC1=C(C(=O)Nc2ccccc2C)C(c2ccc(C)o2)n2c(s/c(=C/c3ccccc3)c2=O)=N1 (configuration not stated) 3.55 µM [inhibitor, partial curve, poor fit]
CN(C(=O)CCc1nnc(CCCCc2ccccc2)o1)C1CCOCC1 39.8 µM [inhibitor, single point]
Cc1nn(C(=O)C(C)N2C(=O)c3ccccc3C2=O)c(C)c1Br (configuration not stated) 39.8 µM [inhibitor, partial curve]
CC1CN(c2nc(-c3ccccc3)nnc2-c2ccccc2)CC(C)O1 (configuration not stated) 39.8 µM [inhibitor, partial curve]
Cc1ccc(NC(=S)N=Nc2c(O)[nH]c3ccccc23)cc1 14.1 µM [inhibitor, partial curve]
O=C(NCC1CC1(Cl)Cl)Nc1ccc(Cl)c(Cl)c1 (configuration not stated) 50.1 µM [inhibitor, single point]
N/C(Cc1ccccc1)=N\OC(=O)c1cccc2ccccc12 56.2 µM [inhibitor, single point]
CCOC(=O)C1=C(CSc2nc3c(cc2C#N)CN(C)CC3)OC(N)=C(C#N)C1c1ccc(Cl)cc1 (configuration not stated) 50.1 µM [inhibitor, single point]
COc1ccc(N2C(=O)C(Cl)=C(N3CCOCC3)C2=O)cc1 17.8 µM [inhibitor, partial curve]
O=C(Nc1ccccc1)OC1CC2CC1C1CCCC21 (configuration not stated) 7.94 µM [inhibitor, partial curve]
Cc1nc2c3ccccc3nc(NNC(=O)CCC(=O)N3CCN(c4ccccc4F)CC3)n2n1 44.7 µM [inhibitor, single point]
Cc1ccc(NC(=O)CCC(=O)N2CCOc3ccccc32)c(Cl)c1 14.1 µM [inhibitor, partial curve]
O=S(=O)(Nc1cc(Cl)cc(Cl)c1)N1CCOCC1 14.1 µM [inhibitor, partial curve]
COc1ccc(-c2ccc(=O)n(CC(=O)NCCc3ccccc3)n2)cc1 10 µM [inhibitor, full curve]
N#Cc1ccc(C(=O)OCC(=O)Nc2ccc(N3CCOCC3)cc2)cc1 12.6 µM [inhibitor, partial curve]
O=C(NNc1ccc([N+](=O)[O-])cc1)Nc1ccccc1 31.6 µM [inhibitor, single point]
O=S(=O)(N/N=C1/CC(c2ccccc2)Oc2ccccc21)c1ccc(Br)cc1 (configuration not stated) 35.5 µM [inhibitor, partial curve]
NC(=O)c1cccn1Cc1ccccc1Cl 10 µM [inhibitor, partial curve]
CCCC(=O)Nc1ccc(Sc2ccc([N+](=O)[O-])cc2)cc1 50.1 µM [inhibitor, single point]
O=c1c2ccccc2nnn1Cc1nnc(-c2ccccc2Br)o1 25.1 µM [inhibitor, partial curve]
COc1cccc(CNC(=O)c2nnn(CC(=O)Nc3ccc(C)c(C)c3)c2N)c1 5.62 µM [inhibitor, partial curve]
CCOC(=O)c1cccc(NC(=O)N2CCC(CN3CCCCCC3)CC2)c1 22.4 µM [inhibitor, partial curve]
Cc1c(Cl)c(C(=O)NC2C3CC4CC(C3)CC2C4)nn1C (configuration not stated) 12.6 µM [inhibitor, partial curve]
Cc1ccc(CNS(=O)(=O)N(C)C)cc1 25.1 µM [inhibitor, partial curve]
CCN(CC)C(=O)Cn1cc(C(=O)C(=O)N2CCN(c3ccc([N+](=O)[O-])cc3)CC2)c2ccccc21 25.1 µM [inhibitor, partial curve]
CC(C)CNS(=O)(=O)c1ccc(NC(=O)Cn2nc(-c3ccc(F)cc3)ccc2=O)cc1 50.1 µM [inhibitor, single point]
Cc1ccccc1-c1cc(=O)c2c(O)cccc2o1 20 µM [inhibitor, partial curve]
CC(=O)c1c(C)oc2ccc(N(C(=O)c3ccncc3)S(=O)(=O)c3ccc(C)cc3C)cc12 1.58 µM [inhibitor, full curve]
Cc1ccc(NC2CCCN(C(=O)CCC(=O)c3ccccc3)C2)cc1C (configuration not stated) 39.8 µM [inhibitor, partial curve]
CC1=CC2=NC(=O)/C(=C/c3cccn3Cc3ccccc3)C(=N)N2O1 22.4 µM [inhibitor, partial curve]
COC(=O)c1ccc(Cn2nc(C)c(Cl)c2C)o1 35.5 µM [inhibitor, partial curve]
CC(NC(=O)c1ccc(F)cc1)C1CC2CCC1C2 (configuration not stated) 17.8 µM [inhibitor, partial curve]
COc1ccc2c(c1)CC/C(=C\c1ccc(OC)c(Cn3nc(C)cc3C)c1)C2=O 39.8 µM [inhibitor, partial curve]
Cc1nc2nc[nH]n2c(=O)c1NC(=O)CC12CC3CC(CC(C3)C1)C2 35.5 µM [inhibitor, partial curve]
Nc1c(C(=O)NCc2ccccc2)nnn1Cc1cccc(Br)c1 3.55 µM [inhibitor, full curve]
COc1ccc2c(Cl)c(-c3nnc4n3CCCCC4)sc2c1 15.8 µM [inhibitor, partial curve, poor fit]
O=C(Cn1c(C(F)(F)F)nc2ccccc21)Oc1cccc(C(F)(F)F)c1 15.8 µM [inhibitor, partial curve]
CC1Cc2ccccc2N1C(=O)COC(=O)CCc1nc2ccccc2c(=O)[nH]1 (configuration not stated) 17.8 µM [inhibitor, partial curve]
COCCCN=Cc1c(-c2ccccc2)[nH]n(-c2nc3ccccc3s2)c1=O 28.2 µM [inhibitor, single point]
CCOC(=O)c1c(-c2ccc(C)c(C)c2)csc1NC(=O)C1CC=CCC1C(=O)O (configuration not stated) 56.2 µM [inhibitor, single point]
CC(C)[C@H]1COCCS(=O)(=O)N1Cc1cccc(Cl)c1 35.5 µM [inhibitor, partial curve]
CCCCc1oc2ccccc2c1C(=O)c1cc(I)c(OCCN(CC)CC)c(I)c1 17.8 µM [inhibitor, partial curve]
O=C(CNC(=O)c1cccs1)OCC(=O)c1ccc(Cl)cc1 25.1 µM [inhibitor, partial curve]
CCN(CC)S(=O)(=O)c1ccc(OC)c(NC(=S)Nc2cccc(C)c2C)c1 50.1 µM [inhibitor, single point]
COc1ccccc1N(O)C1CC(=O)N(c2ccc(Br)cc2)C1=O (configuration not stated) 20 µM [inhibitor, partial curve]
CC(C)[C@H](NC(=O)c1ccc(Cl)c([N+](=O)[O-])c1)C(=O)NCc1ccc(Cl)cc1Cl 28.2 µM [inhibitor, partial curve]
Cc1ccc(NC(=O)Cn2nnc(C(=O)NCCc3ccccc3)c2N)cc1C 4.47 µM [inhibitor, single point]

Potency, inactive:
NC(=S)N/N=C\c1c(OCc2ccccc2Cl)ccc2ccccc12
CC(C)(C)c1ccc(NC(=O)N2CCN(c3ccc([N+](=O)[O-])cn3)CC2)cc1
Cc1cc(-c2nnc3n2N=C(c2ccc(-c4ccccc4)cc2)CS3)n[nH]1
Cc1cccc(Nc2nnc(SCC(=O)Nc3ccccc3[N+](=O)[O-])s2)c1
CN(C)C(=O)c1c(NC(=O)c2ccco2)sc2c1CCCCC2
O=C(O)c1cccc(NC(=S)N/N=C/c2cccc(O)c2)c1
O=C(Nc1cnccn1)c1ccc(Cl)cc1
O=C(c1ccccc1F)N1CCN(Cc2ccccc2F)CC1
CCN1C(=O)CS/C1=N\S(=O)(=O)c1ccc(Cl)cc1
COc1ccc(C)cc1NC(=O)NCc1ccc(F)cc1
Cn1c(=O)[nH]c(=O)c2c1[nH]c(=S)n2CCCc1ccccc1
O=C1C2C(c3ccccc3)CC=CC2[C@H](c2ccc(C(F)(F)F)cc2)N1Cc1ccccc1 (some centres not stated)
CC(C)(C)C1=NN=C2c3ccccc3C(=O)C21 (configuration not stated)
CC(=O)c1cccc(NC(=S)N2c3ccccc3CC2C)c1 (configuration not stated)
Cc1ccc(C(=O)Cn2nnc3ccccc32)cc1
CCOc1ccc(CNc2ccc(CNc3ncn[nH]3)cc2)cc1
CC[C@H](C)[C@H](NC(=O)[C@H](CC(C)C)NC(=O)[C@@H](N)CO)C(=O)NCC(=O)N[C@@H](CCCCN)C(=O)N[C@H](C(=O)O)C(C)C
